# Data as given in the supplement of paper PMC10037445.
# Where “and” joins values, the source holds several entries; their conditions need not be identical. Equal entries are not always repeated. In all, about 2,900 compounds were measured (“NF-kB SEAP reporter activity, fold change vs agonist alone”: median about 0.99, highest 2% from about 2.6 on). This is one part of the list.
# What was measured:
# RAW-Dual [1] = assay: NF-kB SEAP reporter activity, fold change vs agonist alone; higher = enhanced NF-kB activity
# Procedure, shortened: (§1)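 Cytotoxic wells were those whose IncuCyte confluency was below 70% of agonist controls in both mask sets. The cells were RAW-Dual macrophages at 50,000 cells/well in DMEM on 384-well plates, dosed with 50 nL of library stock by pin tool, stimulated with a PRR agonist 1 h later, and kept at 37 °C, 5% CO2 for 20 hours. IRF and NF-κB reporter activity, as fold change over agonist-alone wells, came from supernatant read by QuantiLuc luminescence and QuantiBlue absorbance, respectively.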
# RAW-Dual [2] = assay: NF-kB SEAP reporter activity, fold change vs agonist alone; cytotoxicity flag (confluency mask): not cytotoxic; higher = enhanced NF-kB activity
# Procedure, shortened: as §1
# RAW-Dual [3] = assay: NF-kB SEAP reporter activity, fold change vs agonist alone; cytotoxicity flag (confluency mask): cytotoxic (confluency <70% of control); higher = enhanced NF-kB activity
# Procedure, shortened: as §1
# [4] = library stock concentration (final ~1000-fold dilution): 10 mM, cytotoxicity flag (confluency mask): not cytotoxic, agonist: MPLA (TLR4) […]
# [5] = agonist: ODN 1826 (TLR9) 0.5 ug/mL
# [6] = agonist: Pam2CSK4 (TLR2/6) 0.1 ug/mL
# [7] = agonist: Pam3CSK4 (TLR2/1) 0.1 ug/mL
# [8] = library stock concentration (final ~1000-fold dilution): 10 mM, cytotoxicity flag (confluency mask): not cytotoxic, agonist: Imiquimod (TLR7) […]
structure (smiles),measurement,setting,value
Nc1nc(OCC2CCCCC2)c2nc[nH]c2n1,NF-kB SEAP reporter activity,RAW-Dual [1]; [4],1.51
Nc1nc(OCC2CCCCC2)c2nc[nH]c2n1 (library stock concentration (final ~1000-fold dilution): 10 mM),NF-kB SEAP reporter activity,RAW-Dual [2]; agonist: LPS (TLR4) 0.1 ug/mL,1.95
same,NF-kB SEAP reporter activity,RAW-Dual [2]; [5],0.924
same,NF-kB SEAP reporter activity,RAW-Dual [2]; [6],0.711
same,NF-kB SEAP reporter activity,RAW-Dual [2]; [7],0.565
CC(C)(O)c1ccccc1CCC(SCC1(CC(=O)O)CC1)c1cccc(C=Cc2ccc3ccc(Cl)cc3n2)c1 (centres undefined),NF-kB SEAP reporter activity,"RAW-Dual [1]; library stock concentration (final ~1000-fold dilution): 10 mM, cytotoxicity flag (confluency mask): cytotoxic (confluency <70% of control), agonist: Imiquimod (TLR7) […]",0.993
same,NF-kB SEAP reporter activity,"RAW-Dual [1]; library stock concentration (final ~1000-fold dilution): 10 mM, cytotoxicity flag (confluency mask): cytotoxic (confluency <70% of control), agonist: MPLA (TLR4) […]",0.896
CC(C)(O)c1ccccc1CCC(SCC1(CC(=O)O)CC1)c1cccc(C=Cc2ccc3ccc(Cl)cc3n2)c1 (centres undefined) (library stock concentration (final ~1000-fold dilution): 10 mM),NF-kB SEAP reporter activity,RAW-Dual [3]; agonist: LPS (TLR4) 0.1 ug/mL,1.28
same,NF-kB SEAP reporter activity,RAW-Dual [3]; [5],0.522
same,NF-kB SEAP reporter activity,RAW-Dual [3]; [6],0.929
same,NF-kB SEAP reporter activity,RAW-Dual [3]; [7],0.491
CN1C2CCC1CC(OC(c1ccccc1)c1ccccc1)C2.CS(=O)(=O)O (centres undefined),NF-kB SEAP reporter activity,RAW-Dual [1]; [8],1.89
same,NF-kB SEAP reporter activity,RAW-Dual [1]; [4],1.29
CN1C2CCC1CC(OC(c1ccccc1)c1ccccc1)C2.CS(=O)(=O)O (centres undefined) (library stock concentration (final ~1000-fold dilution): 10 mM),NF-kB SEAP reporter activity,RAW-Dual [2]; agonist: LPS (TLR4) 0.1 ug/mL,1.24
same,NF-kB SEAP reporter activity,RAW-Dual [2]; [5],0.721
same,NF-kB SEAP reporter activity,RAW-Dual [2]; [6],0.896
same,NF-kB SEAP reporter activity,RAW-Dual [2]; [7],1.02
CCOC(=O)C1=CCCCC1S(=O)(=O)Nc1ccc(F)cc1Cl (centres undefined) (library stock concentration (final ~1000-fold dilution): .1 mM),NF-kB SEAP reporter activity,RAW-Dual [2]; agonist: LPS (TLR4) 0.1 ug/mL,0.288
same,NF-kB SEAP reporter activity,RAW-Dual [2]; [5],1.09
same,NF-kB SEAP reporter activity,RAW-Dual [2]; [6],1.36
same,NF-kB SEAP reporter activity,RAW-Dual [2]; [7],1.39
CCOC(=O)C1=CCCCC1S(=O)(=O)Nc1ccc(F)cc1Cl (centres undefined),NF-kB SEAP reporter activity,"RAW-Dual [1]; library stock concentration (final ~1000-fold dilution): .1 mM, cytotoxicity flag (confluency mask): not cytotoxic, agonist: Imiquimod (TLR7) […]",1.2
same,NF-kB SEAP reporter activity,"RAW-Dual [1]; library stock concentration (final ~1000-fold dilution): .1 mM, cytotoxicity flag (confluency mask): not cytotoxic, agonist: MPLA (TLR4) […]",0.252
Nc1ncnc2[nH]nc(Nc3ccc(F)cc3)c12,NF-kB SEAP reporter activity,RAW-Dual [1]; [8],1.13
same,NF-kB SEAP reporter activity,RAW-Dual [1]; [4],2.6
Nc1ncnc2[nH]nc(Nc3ccc(F)cc3)c12 (library stock concentration (final ~1000-fold dilution): 10 mM),NF-kB SEAP reporter activity,RAW-Dual [2]; agonist: LPS (TLR4) 0.1 ug/mL,6.5
same,NF-kB SEAP reporter activity,RAW-Dual [2]; [5],1.43
same,NF-kB SEAP reporter activity,RAW-Dual [2]; [6],0.872
same,NF-kB SEAP reporter activity,RAW-Dual [2]; [7],1.26
CCCCNc1ncc(C(=O)NCc2ccc(-n3ccnc3)cc2)c(NC2CCC(O)CC2)n1 (centres undefined) (library stock concentration (final ~1000-fold dilution): 10 mM),NF-kB SEAP reporter activity,RAW-Dual [2]; agonist: LPS (TLR4) 0.1 ug/mL,0.621
same,NF-kB SEAP reporter activity,RAW-Dual [2]; [5],0.381
same,NF-kB SEAP reporter activity,RAW-Dual [2]; [6],0.331
same,NF-kB SEAP reporter activity,RAW-Dual [2]; [7],0.4
CCCCNc1ncc(C(=O)NCc2ccc(-n3ccnc3)cc2)c(NC2CCC(O)CC2)n1 (centres undefined),NF-kB SEAP reporter activity,RAW-Dual [1]; [8],1.01
same,NF-kB SEAP reporter activity,RAW-Dual [1]; [4],1.59
CC(C)NCC(O)COc1ccc(CC(N)=O)cc1 (centres undefined),NF-kB SEAP reporter activity,RAW-Dual [1]; [4],1.04
CC(C)NCC(O)COc1ccc(CC(N)=O)cc1 (centres undefined) (library stock concentration (final ~1000-fold dilution): 10 mM),NF-kB SEAP reporter activity,RAW-Dual [2]; agonist: LPS (TLR4) 0.1 ug/mL,1.29
same,NF-kB SEAP reporter activity,RAW-Dual [2]; [5],0.938
same,NF-kB SEAP reporter activity,RAW-Dual [2]; [6],1.45
same,NF-kB SEAP reporter activity,RAW-Dual [2]; [7],0.944
NC(CC(=O)N1CCn2c(nnc2C(F)(F)F)C1)Cc1cc(F)c(F)cc1F (centres undefined),NF-kB SEAP reporter activity,RAW-Dual [1]; [8],0.912
NC(CC(=O)N1CCn2c(nnc2C(F)(F)F)C1)Cc1cc(F)c(F)cc1F (centres undefined) (library stock concentration (final ~1000-fold dilution): 10 mM),NF-kB SEAP reporter activity,RAW-Dual [2]; agonist: LPS (TLR4) 0.1 ug/mL,0.947 and 0.954
same,NF-kB SEAP reporter activity,RAW-Dual [2]; [5],0.949 and 0.994
same,NF-kB SEAP reporter activity,RAW-Dual [2]; [6],1.15 and 0.952
same,NF-kB SEAP reporter activity,RAW-Dual [2]; [7],1.05 and 1.03
O=C(/C=C/c1ccc(O)c(O)c1)O[C@@H]1C[C@@](O)(C(=O)O)C[C@@H](O)[C@@H]1O,NF-kB SEAP reporter activity,RAW-Dual [1]; [8],0.869
same,NF-kB SEAP reporter activity,RAW-Dual [1]; [4],0.996
O=C(/C=C/c1ccc(O)c(O)c1)O[C@@H]1C[C@@](O)(C(=O)O)C[C@@H](O)[C@@H]1O (library stock concentration (final ~1000-fold dilution): 10 mM),NF-kB SEAP reporter activity,RAW-Dual [2]; agonist: LPS (TLR4) 0.1 ug/mL,1.09
same,NF-kB SEAP reporter activity,RAW-Dual [2]; [5],1.1
same,NF-kB SEAP reporter activity,RAW-Dual [2]; [6],1.21
same,NF-kB SEAP reporter activity,RAW-Dual [2]; [7],1.03
CCCCCCCCCCCCCCOC1C(OC)OC(CN)C(O)C1OCCCCCCCCCCCCCC (centres undefined),NF-kB SEAP reporter activity,"RAW-Dual [1]; library stock concentration (final ~1000-fold dilution): 1 mM, cytotoxicity flag (confluency mask): not cytotoxic, agonist: Imiquimod (TLR7) […]",0.533
same,NF-kB SEAP reporter activity,"RAW-Dual [1]; library stock concentration (final ~1000-fold dilution): 1 mM, cytotoxicity flag (confluency mask): not cytotoxic, agonist: MPLA (TLR4) […]",1.05
CCCCCCCCCCCCCCOC1C(OC)OC(CN)C(O)C1OCCCCCCCCCCCCCC (centres undefined) (library stock concentration (final ~1000-fold dilution): 1 mM),NF-kB SEAP reporter activity,RAW-Dual [2]; agonist: LPS (TLR4) 0.1 ug/mL,1.03
same,NF-kB SEAP reporter activity,RAW-Dual [2]; [5],1.01
same,NF-kB SEAP reporter activity,RAW-Dual [2]; [6],1.1
same,NF-kB SEAP reporter activity,RAW-Dual [2]; [7],1.28
Cn1c(=O)c2c(ncn2CC2OCCO2)n(C)c1=O (library stock concentration (final ~1000-fold dilution): 10 mM),NF-kB SEAP reporter activity,RAW-Dual [2]; agonist: LPS (TLR4) 0.1 ug/mL,1.05
same,NF-kB SEAP reporter activity,RAW-Dual [2]; [5],0.977
same,NF-kB SEAP reporter activity,RAW-Dual [2]; [6],1.08
same,NF-kB SEAP reporter activity,RAW-Dual [2]; [7],1.07
Cn1c(=O)c2c(ncn2CC2OCCO2)n(C)c1=O,NF-kB SEAP reporter activity,RAW-Dual [1]; [8],0.892
same,NF-kB SEAP reporter activity,RAW-Dual [1]; [4],1.08
CN(C)C(=O)CCSC(SCCC(=O)O)c1cccc(C=Cc2ccc3ccc(Cl)cc3n2)c1 (centres undefined),NF-kB SEAP reporter activity,RAW-Dual [1]; [8],0.973
same,NF-kB SEAP reporter activity,RAW-Dual [1]; [4],1.05
CN(C)C(=O)CCSC(SCCC(=O)O)c1cccc(C=Cc2ccc3ccc(Cl)cc3n2)c1 (centres undefined) (library stock concentration (final ~1000-fold dilution): 10 mM),NF-kB SEAP reporter activity,RAW-Dual [2]; agonist: LPS (TLR4) 0.1 ug/mL,1.5
same,NF-kB SEAP reporter activity,RAW-Dual [2]; [5],1.12
same,NF-kB SEAP reporter activity,RAW-Dual [2]; [6],0.936
same,NF-kB SEAP reporter activity,RAW-Dual [2]; [7],0.945
